Results on 40 molecules are retold here after the antibiotic and cytotoxicity screens of Wong et al. (2023).

Molecules are shown by their SMILES. The list shows a part of the results.

The test system of one experiment is HSkMC (human skeletal muscle cells). Briefly: cytotoxicity call (relative viability < 0.9). The conditions noted are these: 10 µM.
Consider `CN(C)CCCCNC(=O)[C@H]1C[C@H]2C(=O)N[C@@H](CCCC[N+](C)(C)C)C(=O)N2[C@H]1c1ccc(O)cc1`, for which the cytotoxicity call was “inactive”.
Turning to `CC12CCC(O)CC1=CCC1C2CCC2(C)C(c3cccnc3)=CCC12` (centres undefined), the cytotoxicity call is “inactive”.
Regarding `C[C@@H]1CN([C@@H](C)CO)C(=O)c2cc(-c3ccc(C(=O)N(C)C)cc3)cnc2O[C@@H]1CN(C)C(=O)C1CC1`, the cytotoxicity call was “inactive”.
As to `COc1ccc(NC(=O)Nc2ccc3c(c2)C(=O)N([C@H](C)CO)C[C@H](C)[C@@H](CN(C)Cc2ccc(Oc4ccccc4)cc2)O3)cc1`, the cytotoxicity call is “inactive”.
For `COc1ccc(S(=O)(=O)Nc2ccc3c(c2)C(=O)N([C@@H](C)CO)C[C@@H](C)[C@H](CN(C)C(=O)NC2CCCCC2)OCCCC[C@@H](C)O3)cc1`, the cytotoxicity call was “inactive”.
Same read-out and setting: the value for `COCCNC(=O)[C@H]1[C@H](CO)[C@H]2Cn3c(ccc(-c4ccccc4F)c3=O)[C@@H]1N2S(C)(=O)=O` was “inactive”; that for `CC1=NCCC2c3ccc(O)cc3NC12` (centres undefined) was “inactive”; that for `Cc1noc(C)c1S(=O)(=O)N(C)C[C@H]1Oc2ccc(NC(=O)Cc3cn(C)c4ccccc34)cc2CC(=O)N([C@@H](C)CO)C[C@@H]1C` was “inactive”.
As to `C[C@H]1CN([C@@H](C)CO)C(=O)c2c(c3ccccc3n2C)-c2ccccc2CO[C@@H]1CN(C)Cc1ccc(F)cc1`, the cytotoxicity call was “inactive”.

The test system of a further experiment is HepG2. Briefly: cytotoxicity call (relative viability < 0.9). The following applies: 10 µM.
In the case of `C[C@H](CO)N1C[C@H](C)[C@@H](CN(C)Cc2ccc(C(=O)O)cc2)OCc2ccccc2-c2c(n(C)c3ccccc23)C1=O`, the cytotoxicity call is “inactive”.
Turning to `Cc1cc(C)n([C@@H](C)CN)n1`, the cytotoxicity call was “inactive”.
Take `Cc1cc(C(=O)Nc2cccc3c2O[C@H](CN(C)S(=O)(=O)c2cccs2)[C@H](C)CN([C@H](C)CO)C3=O)n(C)n1`: the cytotoxicity call was “inactive”.
Regarding `C[C@H](CO)N1C[C@H](C)[C@H](CN(C)C)Oc2ccc(NC(=O)Cc3cn(C)c4ccccc34)cc2CC1=O`, the cytotoxicity call is “inactive”.
Take `C[C@H](CO)N1C[C@H](C)[C@H](CN(C)C(=O)Nc2cccc3ccccc23)Oc2ncc(-c3cccc(F)c3)cc2C1=O`: the cytotoxicity call is “inactive”.
As for `O=C(C[C@@H]1CC[C@@H](NC(=O)CN2CCOCC2)[C@H](CO)O1)NC1CCC1`, the cytotoxicity call is “inactive”.
Consider `C[C@H](CO)N1C[C@H](C)[C@H](CN(C)Cc2ccccc2)Oc2ccc(NC(=O)CCCCCC(=O)Nc3ccccc3N)cc2CC1=O`, for which the cytotoxicity call was “inactive”.
As for `C#CCN1C(=O)C[C@H](O)C1=O`, the cytotoxicity call is “inactive”.
With `CC(=O)OCC(CCn1cnc2cnc(N)nc21)COC(C)=O`, the cytotoxicity call was “inactive”.
On the same count and under the same terms, to `COc1ccc(S(=O)(=O)N(C)C[C@H]2Oc3ccc(NC(=O)c4ccncc4)cc3C(=O)N([C@H](C)CO)C[C@H]2C)cc1` belongs “inactive”.
In the case of `O=C(N[C@@H]1CC[C@@H](CCNS(=O)(=O)c2ccccc2)O[C@H]1CO)c1cnccn1`, the cytotoxicity call is “inactive”.
As to `CN1C(=O)c2cc(NS(=O)(=O)c3ccc(F)cc3)ccc2OC[C@@H]2O[C@@H](CC(=O)NCC(F)(F)F)CC[C@@H]21`, the cytotoxicity call is “inactive”.
Same read-out and setting: the value for `O=c1nc[nH]c2c1ncn2[C@@H]1O[C@H](CO)[C@@H](O)[C@H]1O` was “inactive”; that for `C[C@@H]1CN([C@H](C)CO)C(=O)c2cc(NC(=O)Nc3cccc4ccccc34)ccc2O[C@H]1CN(C)S(=O)(=O)c1ccc(Cl)cc1` was “inactive”; that for `C[C@@H]1CCCCO[C@@H](CN(C)C(=O)Cc2ccccc2)[C@H](C)CN([C@@H](C)CO)C(=O)c2cc(NC(=O)NC3CCCCC3)ccc2O1` was “inactive”.
For `O=C(C[C@@H]1CC[C@@H]2[C@H](COC[C@H](O)CN2S(=O)(=O)c2ccccc2)O1)NCCN1CCCC1`, the cytotoxicity call is “inactive”.
For `Cc1ccc(S(=O)(=O)Nc2cccc3c2O[C@H](CN(C)Cc2ccc(C(F)(F)F)cc2)[C@H](C)CN([C@H](C)CO)C3=O)cc1`, the cytotoxicity call is “inactive”.
Consider `Cc1ccc(S(=O)(=O)N(C)C[C@@H]2OCCCC[C@H](C)Oc3ccc(NC(=O)Nc4c(C)noc4C)cc3C(=O)N([C@@H](C)CO)C[C@@H]2C)cc1`, for which the cytotoxicity call is “inactive”.
For the molecule `COc1ccc2c3c([nH]c2c1)[C@@H](CO)N(C[C@]13CN(CC2CCOCC2)C1)S(=O)(=O)c1cn(cn1)C`, the cytotoxicity call is “inactive”.
For `C[C@@H]1CN([C@H](C)CO)S(=O)(=O)c2ccc(-c3cncnc3)cc2O[C@H]1CN(C)C(=O)Cc1cccnc1`, the cytotoxicity call is “inactive”.
Same read-out and setting: to `C[C@@H]1CCCCO[C@H](CN(C)S(=O)(=O)c2cccs2)[C@H](C)CN([C@@H](C)CO)C(=O)c2cc(NC(=O)C3CCCCC3)ccc2O1` belongs “inactive”; to `C[C@@H]1CN([C@H](C)CO)S(=O)(=O)c2ccc(-c3cccc(C#N)c3)cc2O[C@H]1CN(C)C(=O)c1ccncc1`, “inactive”; to `COc1ccc2cc1Oc1ccc(cc1)C[C@H]1c3c(cc4c(c3Oc3cc5c(cc3OC)CCN(C)[C@@H]5C2)OCO4)CCN1C`, “inactive”.
On the same count and under the same terms, to `COCC(=O)N1C[C@H](C)[C@@H](OC)CN(C)C(=O)c2ccc(NC(=O)Nc3cccc(F)c3)cc2OC[C@H]1C` belongs “inactive”; to `C[C@H](CO)N1C[C@H](C)[C@@H](CN(C)S(=O)(=O)c2ccc(Cl)cc2)OCCCC[C@H](C)Oc2ccc(NC(=O)c3ccccc3)cc2C1=O`, “inactive”.
Still for that read-out and setting: the value for `NC(=O)NCC#Cc1ccc2c(c1)[C@]1(C(=O)N2)[C@H](c2ccc(OCCO)cc2)N2[C@H](c3ccccc3)[C@H](c3ccccc3)OC(=O)[C@H]2[C@@H]1C(N)=O` was “inactive”.
Take `C[C@@H]1CCCCO[C@H](CN(C)Cc2ccc(Cl)c(Cl)c2)[C@@H](C)CN([C@H](C)CO)C(=O)c2cc(NC(=O)CCC(F)(F)F)ccc2O1`: the cytotoxicity call is “inactive”.
Take `Cc1ccc(O)c(CO)n1`: the cytotoxicity call is “inactive”.
For `COc1ccccc1CNC(=O)C[C@@H]1CC[C@H]2[C@@H](COC[C@H](O)CN2C(=O)Nc2ccc(Cl)cc2)O1`, the cytotoxicity call is “inactive”.
As for `C[C@]12C=CC(=O)C=C1CC[C@@H]1[C@@H]2[C@@H](O)C[C@@]2(C)[C@H]1CC[C@]2(O)C(=O)COC(=O)c1ccc(CO[N+](=O)[O-])cc1`, the cytotoxicity call was “inactive”.
`COc1ccc(S(=O)(=O)Nc2ccc3c(c2)C(=O)N([C@@H](C)CO)C[C@@H](C)[C@@H](CN(C)C(=O)Nc2ccc(F)cc2)OCCCC[C@@H](C)O3)cc1`: the cytotoxicity call is “inactive”.
Consider `CN(C)CCCCNC(=O)[C@H]1C[C@H]2C(=O)N[C@@H](CCCC[N+](C)(C)C)C(=O)N2[C@H]1c1ccc(O)cc1`, for which the cytotoxicity call was “inactive”.
As for `CC12CCC(O)CC1=CCC1C2CCC2(C)C(c3cccnc3)=CCC12` (centres undefined), the cytotoxicity call was “inactive”.
Turning to `C[C@@H]1CN([C@@H](C)CO)C(=O)c2cc(-c3ccc(C(=O)N(C)C)cc3)cnc2O[C@@H]1CN(C)C(=O)C1CC1`, the cytotoxicity call was “inactive”.
On to `COc1ccc(NC(=O)Nc2ccc3c(c2)C(=O)N([C@H](C)CO)C[C@H](C)[C@@H](CN(C)Cc2ccc(Oc4ccccc4)cc2)O3)cc1`, for which the cytotoxicity call is “active”.
As for `COc1ccc(S(=O)(=O)Nc2ccc3c(c2)C(=O)N([C@@H](C)CO)C[C@@H](C)[C@H](CN(C)C(=O)NC2CCCCC2)OCCCC[C@@H](C)O3)cc1`, the cytotoxicity call was “inactive”.
With `COCCNC(=O)[C@H]1[C@H](CO)[C@H]2Cn3c(ccc(-c4ccccc4F)c3=O)[C@@H]1N2S(C)(=O)=O`, the cytotoxicity call was “inactive”.
As for `CC1=NCCC2c3ccc(O)cc3NC12` (centres undefined), the cytotoxicity call was “active”.
In the case of `Cc1noc(C)c1S(=O)(=O)N(C)C[C@H]1Oc2ccc(NC(=O)Cc3cn(C)c4ccccc34)cc2CC(=O)N([C@@H](C)CO)C[C@@H]1C`, the cytotoxicity call was “inactive”.
In the case of `C[C@H]1CN([C@@H](C)CO)C(=O)c2c(c3ccccc3n2C)-c2ccccc2CO[C@@H]1CN(C)Cc1ccc(F)cc1`, the cytotoxicity call is “inactive”.
